Some of the results follow. Many values rest on one well or one pass, so single values are uncertain.
What was measured:
Assay in all cases: cell count relative to DMSO control; melanoma cells; higher = more viable cells
Conditions in all cases: library dose: standard library concentration; 72 h
G361 = system: G361
IPC-298 = system: IPC-298
IST-MEL1 = system: IST-MEL1
LB2518-MEL = system: LB2518-MEL
LOXIMVI = system: LOXIMVI
MEL-HO = system: MEL-HO
MZ2-MEL = system: MZ2-MEL
MeWo = system: MeWo
RPMI7951 = system: RPMI7951
RVH-421 = system: RVH-421
SkMel28 = system: SkMel28
SkMel2 = system: SkMel2
SkMel30 = system: SkMel30
SkMel5 = system: SkMel5
UACC257 = system: UACC257
UACC62 = system: UACC62
WM115 = system: WM115
WM1716 = system: WM1716
WM1745 = system: WM1745
WM3526 = system: WM3526
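Further: cells treated in 1,536-well plates, then fixed and DAPI-stained, with nuclei counted from automated high-throughput microscope images.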

Structure (SMILES)	cell count (G361)	cell count (IPC-298)	cell count (IST-MEL1)	cell count (LB2518-MEL)	cell count (LOXIMVI)	cell count (MEL-HO)	cell count (MZ2-MEL)	cell count (MeWo)	cell count (RPMI7951)	cell count (RVH-421)	cell count (SkMel28)	cell count (SkMel2)	cell count (SkMel30)	cell count (SkMel5)	cell count (UACC257)	cell count (UACC62)	cell count (WM115)	cell count (WM1716)	cell count (WM1745)	cell count (WM3526)
CCN(CC)CCNC(=O)c1c(C)[nH]c(/C=C2\C(=O)Nc3ccc(F)cc32)c1C [sunitinib] + CCCS(=O)(=O)Nc1ccc(F)c(C(=O)c2c[nH]c3ncc(Cl)cc23)c1F [PLX4720] (first compound 2 µM, partner dose 0.4 µM)	66%	64.3%	90.6%	71.5%	165%	86.8%	94.5%	78.3%	92.6%	71.4%	27.1%	107%	86.4%	56.4%	83.6%	43.2%	47.7%	49.9%	62.4%	34.6%
CCN(CC)CCNC(=O)c1c(C)[nH]c(/C=C2\C(=O)Nc3ccc(F)cc32)c1C [sunitinib] + Nc1ccn([C@@H]2O[C@H](CO)[C@@H](O)C2(F)F)c(=O)n1 [gemcitabine] (first compound 2 µM, partner dose 0.002 µM)	49.7%	39.4%	45.6%	45.9%	155%	70.8%	67.8%	32%	68.9%	55.7%	44.2%	73%	60.3%	61.5%	105%	65.8%	70.3%	71.4%	41.2%	65.8%
C[C@]1(O)C[C@@H](c2nc(-c3ccc4ccc(-c5ccccc5)nc4c3)c3c(N)nccn32)C1 + C=CCNC1=C2C[C@@H](C)C[C@H](OC)[C@H](O)[C@@H](C)/C=C(\C)[C@H](OC(N)=O)[C@@H](OC)/C=C\C=C(/C)C(=O)NC(=CC1=O)C2=O [Tanespimycin] (first compound 2 µM, partner dose 0.01 µM)	73.4%	76.6%	73.7%	68.4%	76.1%	96.2%	97.1%	59.7%	34.1%	107%	46%	99.5%	81.7%	63.8%	95.3%	51.2%	26.8%	82.7%	44.5%	61.3%
CCN(CC)CCNC(=O)c1c(C)[nH]c(/C=C2\C(=O)Nc3ccc(F)cc32)c1C [sunitinib] + O=C(Nc1cccc(Cl)c1)Nc1ncc(CCNc2ncnc3ccsc23)s1 [SNS314] (first compound 2 µM, partner dose 0.004 µM)	52.9%	61.5%	55%	48%	114%	84.8%	89.7%	49.6%	49.5%	68.1%	45.4%	58.4%	80.3%	47%	53.6%	49.1%	44.9%	79.7%	37.5%	52.1%
C[C@]1(O)C[C@@H](c2nc(-c3ccc4ccc(-c5ccccc5)nc4c3)c3c(N)nccn32)C1 + C#Cc1cccc(Nc2ncnc3cc(OCCOC)c(OCCOC)cc23)c1 [erlotinib] (first compound 2 µM, partner dose 4 µM)	56.7%	62.5%	91.2%	62.8%	54.3%	84.8%	75.8%	67.1%	55.8%	103%	78.9%	70.1%	63.9%	43.2%	90.3%	50.7%	79.9%	95.6%	36.8%	51.9%
COc1cc([C@@H]2c3cc4c(cc3[C@@H](O[C@@H]3O[C@@H]5CO[C@@H](C)O[C@H]5[C@H](O)[C@H]3O)[C@H]3COC(=O)[C@H]23)OCO4)cc(OC)c1O [etoposide] + Nc1ncn([C@H]2C[C@H](O)[C@@H](CO)O2)c(=O)n1 [decitabine] (first compound 0.1 µM, partner dose 0.5 µM)	72.1%	52.6%	87.9%	94.3%	70.2%	89.1%	67.4%	73%	84.9%	103%	72.4%	71.2%	106%	81.3%	86.3%	61.2%	73.2%	68.3%	75.5%	98.6%
C[C@]1(O)C[C@@H](c2nc(-c3ccc4ccc(-c5ccccc5)nc4c3)c3c(N)nccn32)C1 + COc1ccc(Cl)c(Nc2nc3ccccc3nc2NS(=O)(=O)c2cccc(NC(=O)C(C)(C)N)c2)c1 [XL147] (first compound 2 µM, partner dose 4 µM)	73.5%	76.2%	63.9%	93.5%	74.4%	64.6%	123%	95.5%	95.8%	78.3%	87.9%	104%	127%	66.5%	72%	68.4%	104%	96.8%	65.6%	87%
COc1cc([C@@H]2c3cc4c(cc3[C@@H](O[C@@H]3O[C@@H]5CO[C@@H](C)O[C@H]5[C@H](O)[C@H]3O)[C@H]3COC(=O)[C@H]23)OCO4)cc(OC)c1O [etoposide] + COc1cc(Nc2ncc(F)c(Nc3ccc4c(n3)NC(=O)C(C)(C)O4)n2)cc(OC)c1OC [Tamatinib] (first compound 0.1 µM, partner dose 2 µM)	78.3%	68.3%	73.7%	83.4%	33.6%	79.4%	59.1%	62.3%	40.6%	74.2%	59.6%	56.6%	91.3%	56.2%	70.1%	56%	74.5%	66.1%	33.9%	68.8%
Cn1cnc2c(F)c(Nc3ccc(Br)cc3Cl)c(C(=O)NOCCO)cc21 [selumetinib] + CC(C)(C)c1cnc(CSc2cnc(NC(=O)C3CCNCC3)s2)o1 [SNS-032] (first compound 0.075 µM, partner dose 0.05 µM)	56.5%	62.3%	83.7%	40%	76.5%	74.7%	47.2%	68.7%	45.8%	64.2%	46.5%	31%	61.1%	64.6%	73.3%	50.4%	47.8%	73.7%	68.9%	49.2%
C[C@]1(O)C[C@@H](c2nc(-c3ccc4ccc(-c5ccccc5)nc4c3)c3c(N)nccn32)C1 + Cn1c(Nc2ccc(C(F)(F)F)cc2)nc2cc(Oc3ccnc(-c4ncc(C(F)(F)F)[nH]4)c3)ccc21 [CHIR265] (first compound 2 µM, partner dose 0.4 µM)	14.3%	46.1%	98.1%	29.8%	76.8%	71.1%	44%	72.4%	39%	65.9%	27%	17.4%	55.8%	43.5%	74.7%	47.7%	42.2%	73.6%	37.2%	28.9%
COc1cc([C@@H]2c3cc4c(cc3[C@@H](O[C@@H]3O[C@@H]5CO[C@@H](C)O[C@H]5[C@H](O)[C@H]3O)[C@H]3COC(=O)[C@H]23)OCO4)cc(OC)c1O [etoposide] + CCN(CC)CCNC(=O)c1c(C)[nH]c(/C=C2\C(=O)Nc3ccc(F)cc32)c1C [sunitinib] (first compound 0.1 µM, partner dose 2 µM)	83.9%	71.8%	112%	75.6%	154%	93.9%	84.5%	55.5%	98.6%	105%	53.9%	53.1%	57.6%	58.1%	99.1%	49.4%	53.3%	87.1%	44%	53.1%
Cn1cnc2c(F)c(Nc3ccc(Br)cc3Cl)c(C(=O)NOCCO)cc21 [selumetinib] + Nc1cccc2c1CN(C1CCC(=O)NC1=O)C2=O [lenalidomide] (first compound 0.075 µM, partner dose 5 µM)	69%	50.2%	79.1%	55.5%	116%	72.3%	62.1%	81%	138%	69.1%	61.7%	52.5%	64%	88.6%	89.3%	66.5%	85.6%	80.6%	79.9%	57.3%
C[C@]1(O)C[C@@H](c2nc(-c3ccc4ccc(-c5ccccc5)nc4c3)c3c(N)nccn32)C1 + Nc1cccc2c1CN(C1CCC(=O)NC1=O)C2=O [lenalidomide] (first compound 2 µM, partner dose 5 µM)	81.4%	88.8%	102%	86.1%	79.6%	97.5%	106%	92.2%	99.5%	92.5%	76.6%	81.5%	98.9%	87%	76.6%	109%	95%	95%	68.2%	86.2%
C[C@]1(O)C[C@@H](c2nc(-c3ccc4ccc(-c5ccccc5)nc4c3)c3c(N)nccn32)C1 + CC(=O)O[C@@]12CO[C@@H]1C[C@H](O)[C@@]1(C)C(=O)[C@H](O)C3=C(C)[C@@H](OC(=O)[C@H](O)[C@@H](NC(=O)OC(C)(C)C)c4ccccc4)C[C@@](O)([C@@H](OC(=O)c4ccccc4)[C@H]21)C3(C)C [Docetaxel] (first compound 2 µM, partner dose 0.0005 µM)	10.9%	40.8%	39%	23.5%	65.4%	45.4%	36.7%	22%	27.2%	46.6%	14.8%	15%	34.1%	31.6%	63.1%	41.3%	27.5%	35.7%	31%	34.4%
C[C@]1(O)C[C@@H](c2nc(-c3ccc4ccc(-c5ccccc5)nc4c3)c3c(N)nccn32)C1 + Clc1ccc(Nc2nnc(Cc3ccncc3)c3ccccc23)cc1 [vatalanib] (first compound 2 µM, partner dose 10 µM)	64.4%	58.7%	74.1%	72.8%	36.8%	60.1%	63.3%	63.9%	91.5%	76.4%	63.5%	66.7%	85.1%	39.3%	69.8%	60.9%	86.6%	76.4%	54.2%	49.6%
CCN(CC)CCNC(=O)c1c(C)[nH]c(/C=C2\C(=O)Nc3ccc(F)cc32)c1C [sunitinib] + Cn1nnc2c(C(N)=O)ncn2c1=O [temozolomide] (first compound 2 µM, partner dose 10 µM)	73.5%	60.5%	70.8%	54.8%	95.4%	78.4%	92.8%	54.2%	69.5%	85.6%	28.6%	55.9%	48.9%	52%	91.5%	29.8%	60.3%	56%	39.4%	41.9%

From the supplement of paper PMC4604168 (melanoma cell lines)
